Data reported in PubChem BioAssay AID624417 (National Center for Advancing Translational Sciences (NCATS), 2012).
The campaign covered roughly 410,000 compounds. About 6,400 (1.6%) were called active. Inconclusive results, whose numbers are uncertain, are shown with a selection of clear calls. Calls come from the whole dose curve; as a rule, active = well fitted inhibition curve with a large enough effect; inconclusive = small, poorly fitted or top-dose-only effect; inactive = no such curve, though single readings can be large or run the other way. Potencies beside an inconclusive call are fits to weak or partial responses and may not hold up.

What follows are molecules tested against Glucagon-like peptide 1 receptor (Homo sapiens) (UniProt P43220) (assay: qHTS of GLP-1 Receptor Inverse Agonists (Inhibition Mode)). Conditions: HEK293 GLP-1R CRE-luciferase, luminescence, 24 h, GLP-1R form is constitutively active; series mostly up to 38.3 µM.
Method in brief: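 Seeding at 200 cells/uL, 12 h culture, 24 hr compound treatment, then luciferase reagent and a luminescence read; cells are HEK293 stably expressing a constitutively active GLP-1R plus cAMP-responsive luciferase.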
Note: nearly all actives have a fitted effect of over 55% in size.
Potency is the fitted concentration of half-maximal effect; tags give direction and shape of the fitted curve.

UniProt P43220, sequence (P43220 whole entry, looked up): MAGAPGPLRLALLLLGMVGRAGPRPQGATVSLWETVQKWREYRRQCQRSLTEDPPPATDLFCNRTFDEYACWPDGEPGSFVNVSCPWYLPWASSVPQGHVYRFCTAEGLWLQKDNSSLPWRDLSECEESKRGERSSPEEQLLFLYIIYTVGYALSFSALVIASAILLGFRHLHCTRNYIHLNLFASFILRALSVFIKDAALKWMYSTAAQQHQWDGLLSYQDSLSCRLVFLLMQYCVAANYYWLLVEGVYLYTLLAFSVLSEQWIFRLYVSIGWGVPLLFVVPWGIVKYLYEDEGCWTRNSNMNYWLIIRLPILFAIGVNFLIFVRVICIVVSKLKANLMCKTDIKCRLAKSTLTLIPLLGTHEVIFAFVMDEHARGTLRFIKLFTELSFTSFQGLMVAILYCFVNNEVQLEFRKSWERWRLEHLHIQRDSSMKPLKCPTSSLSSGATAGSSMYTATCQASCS

Potency, inactive:
Cc1cccc(C(=O)NC(=S)N(C)C2CCCCC2)c1
O=C(Nc1cc2ccc(O)cc2oc1=O)c1ccccc1
CCOC(=O)C1CCN(C(=O)c2c(-c3ccccc3)noc2C)CC1
Cc1ccc(NC(=O)c2ncoc2-c2ccco2)cc1Cl
Cc1ccc2c(=O)c(C(=O)NCc3cccs3)c[nH]c2c1
Cc1ccccc1C(=O)Nc1ccccc1C(=O)N1CCC(C)CC1
CCOc1ccc(OC(=O)c2c(-c3ccccc3Cl)noc2C)cc1

Potency, inconclusive:
Cc1ccc(C2C(C#N)=C(N)Oc3cc4c(cc32)OCO4)cc1 (stereo unspecified) 28.2 µM [inhibitor, single point]
O=C(CN(c1cccc(Br)c1)S(=O)(=O)c1ccccc1)N/N=C/c1cc([N+](=O)[O-])ccc1O 12.6 µM [inhibitor, single point]
OCCN(Cc1ccccc1)CC(O)COc1ccc(-c2ccccc2)cc1 (stereo unspecified) 3.98 µM [inhibitor, partial curve, poor fit]
CC(OC(=O)/C=C/c1cccs1)C(=O)Nc1ccc(C(N)=O)cc1 (stereo unspecified) 14.1 µM [inhibitor, single point]
CCN(CC)C(=O)Oc1c(Cl)cc(Cl)c2cccnc12 14.1 µM [inhibitor, partial curve, poor fit]
CCc1ccc(OCC(=O)NCCc2ccc3c(c2)OCCO3)cc1 11.2 µM [inhibitor, single point]
COc1ccccc1NC(=O)C(CC=C(Cl)Cl)C(C)=O (stereo unspecified) 15.8 µM [inhibitor, single point]
COC(=O)CCCC[C@@H]1O[C@H](CCc2ccccc2)Cc2[nH][nH]c(=O)c21 11.2 µM [inhibitor, single point]
CC(C)CCNC(=O)c1ccc2c(c1)N(Cc1ccccc1F)C(=O)c1ccccc1S2(=O)=O 7.94 µM [inhibitor, partial curve, poor fit]
O=C(NCc1cccc(Cl)c1)C1CCCN(c2ncnc3c2nc2n3CCCCC2)C1 (stereo unspecified) 2 µM [inhibitor, full curve, poor fit]
S=C(Nc1cccc2ccccc12)N1CCN(c2ncccn2)CC1 14.1 µM [inhibitor, single point]
Fc1ccccc1COc1ccc2ccccc2c1CNc1nn[nH]n1 10 µM [inhibitor, single point]
Cc1cc(Cn2nc(-c3ccccc3)cc2C(=O)NCc2cccc(C(F)(F)F)c2)on1 6.31 µM [inhibitor, full curve, poor fit]
Cc1ccsc1C1C=C(c2cccc(Br)c2)Nc2ncnn21 (stereo unspecified) 10 µM [inhibitor, single point]
CCCCn1c(NC(=O)c2ccco2)c(S(=O)(=O)c2ccc(C)cc2)c2nc3ccccc3nc21 14.1 µM [inhibitor, single point]
COC(=O)c1ccc2c(C)c(C3(O)CCCCC3)[nH]c2c1 28.2 µM [inhibitor, single point]
CCOC(=O)[C@]12CCCC=C1N(CCC1=CCCCC1)C(=O)[C@H](CC(=O)NCc1cccc3ccccc13)C2 11.2 µM [inhibitor, partial curve, poor fit]
O=S1(=O)CC(N2CCCCC2)C1CN1CCCCC1 (stereo unspecified) 31.6 µM [inhibitor, single point]
CCOC(=O)c1[nH]c(C)c(CCC(=O)Nc2cccc(SC)c2)c1C 31.6 µM [inhibitor, single point]
CCN(CCCNC(=O)CN(C)S(=O)(=O)c1cccc2nsnc12)c1ccccc1 10 µM [inhibitor, single point]
CCCC[C@@H]1C[C@H]1[C@@H](NC(=O)c1cccs1)c1ccc(C(F)(F)F)cc1 12.6 µM [inhibitor, single point]
Cc1ccc2nc(-c3ccccc3)nn2c1 6.31 µM [inhibitor, partial curve, poor fit]
Cc1ccc(-c2nn(-c3ccccc3)cc2CNCc2ccccc2)cc1 7.94 µM [inhibitor, partial curve, poor fit]
CCCN1CCN(C(=S)NCc2ccc(Cl)cc2)CC1 7.94 µM [inhibitor, partial curve]
O=C(COc1ccc(-c2ccccc2)cc1)N1CCN(C(=O)c2cccs2)CC1 10 µM [inhibitor, single point]
CCOc1ccc2nc(N3CCCC(C(=O)NCCCN4CCCCC4)C3)sc2c1 (stereo unspecified) 11.2 µM [inhibitor, partial curve, poor fit]
C/C(=N\N1CCN(c2ccc(Cl)cc2)CC1)c1cccc([N+](=O)[O-])c1 10 µM [inhibitor, partial curve, poor fit]
Oc1ccc(C[C@@H]2CNC(=S)N2CCCCC2CCCCC2)cc1 12.6 µM [inhibitor, single point]
Cc1onc(-c2c(F)cccc2Cl)c1C(=O)OCC(=O)NCc1ccco1 14.1 µM [inhibitor, single point]
COc1ccc(C(c2nnnn2C2CCCC2)N2CCC(C)CC2)cc1 (stereo unspecified) 11.2 µM [inhibitor, partial curve, poor fit]
O=[N+]([O-])c1cc2c(c([N+](=O)[O-])c1)Nc1ccccc1O2 15.8 µM [inhibitor, single point]
CCCCNC(=O)CN1C(=O)COc2ccc(S(=O)(=O)N3CCCCCC3)cc21 5.62 µM [inhibitor, full curve, poor fit]
COC(=O)c1ccc2c(c1)C(C)(C)C(/C=C/c1ccc(O)cc1)=[N+]2C 5.62 µM [inhibitor, full curve, poor fit]
CCc1ccccc1NC(=O)c1cc2sccc2n1C 28.2 µM [inhibitor, single point]
CCCCCCC1CCC(C(=O)N2CCOCC2)CC1 (stereo unspecified) 12.6 µM [inhibitor, single point]
O=C(Nc1ccc(Cl)cc1)Nn1cnc2ccccc2c1=O 1.12 µM [inhibitor, partial curve, poor fit]
O=C(COC(=O)c1c2c(nc3ccccc13)/C(=C/c1ccco1)CC2)NC1CCCC1 31.6 µM [inhibitor, single point]
O=C(CNS(=O)(=O)Cc1ccccc1)NNc1ccccc1 17.8 µM [inhibitor, single point]
COc1ccccc1N(C1=NCCCS1)S(=O)(=O)c1ccc(C(C)(C)C)cc1 12.6 µM [inhibitor, partial curve, poor fit]
CC1CCCN(CC(=O)N2c3ccccc3Sc3ccccc32)C1 (stereo unspecified) 15.8 µM [inhibitor, partial curve, poor fit]
CCCCCCCCN1C(=O)[C@H](CC(=O)NCc2cccs2)C[C@@]2(C(=O)OC)CCCCC=C12 12.6 µM [inhibitor, partial curve, poor fit]
CCc1ccc(N(CC(=O)Nc2ccc(NC(C)=O)cc2)S(=O)(=O)c2ccccc2)cc1 8.91 µM [inhibitor, partial curve, poor fit]
CN(Cc1c(C(=O)N/N=C/c2ccc(O)cc2)nnn1-c1nonc1N)c1ccccc1 2.24 µM [inhibitor, full curve, poor fit]
CC(Nc1nc(-c2ccccc2F)nc2ccccc12)c1ccccc1 (stereo unspecified) 7.94 µM [inhibitor, partial curve, poor fit]
Cc1cccc(C(=O)Nc2nnc(-c3ccco3)o2)c1 28.2 µM [inhibitor, single point]
CCOc1cccc(-c2nnc3sc(COc4ccc(OC)cc4)nn23)c1 11.2 µM [inhibitor, single point]
COCCNc1cc(C)nc2cc(-c3ccc(C)cc3)nn12 28.2 µM [inhibitor, single point]
CCOCCN(C(=O)c1ccccc1Cl)c1cccc(C)c1C 12.6 µM [inhibitor, partial curve, poor fit]
CC(C)(C)c1ccc(C(=O)N2CCCCCC2=O)cc1 8.91 µM [inhibitor, partial curve, poor fit]
O=[N+]([O-])c1ccc(Oc2cccc(Br)c2)c2ccncc12 28.2 µM [inhibitor, single point]
Cc1ccc2oc(C(=O)N3CCC(O)(c4cccc(C(F)(F)F)c4)CC3)c(C)c2c1 11.2 µM [inhibitor, partial curve, poor fit]
CCN(C(=O)C1CCCN(c2ncnc3c2nc2n3CCCCC2)C1)c1cccc(C)c1 (stereo unspecified) 28.2 µM [inhibitor, single point]
C=CCOC(=O)C1=C(C)NC(SCC(=O)OCC)=C(C#N)C1c1ccc(C)cc1 (stereo unspecified) 10 µM [inhibitor, partial curve, poor fit]

Potency, active:
O=C(CN1C(=O)c2ccccc2S1(=O)=O)c1ccc(F)cc1 2.24 µM
